Reference: PubChem BioAssay AID1347073 (National Center for Advancing Translational Sciences (NCATS), 2019)
The campaign covered roughly 45,000 compounds. About 200 (0.44%) were called active. Another 7% or so got no clear call; they are omitted. The call rests on the fitted dose curve; in most records, active means well fitted activation curve with a large enough effect; inconclusive means small, poorly fitted or top-dose-only effect; inactive means no such curve, though single readings can be large or run the other way. The list shows a part of the results.

Experiment: qHTS of TDP-43 Inhibitors: NCGC Sytravon Library Screen; further: 0% is about no effect; nearly all actives have a fitted effect of over 55% in size
Conditions: yeast TDP-43 toxicity rescue, BacTiter-Glo growth, 24 h; series mostly up to 46.1 µM; growth rescue (activation): at the top concentration
In short: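 TDP-43-expressing yeast, pregrown in raffinose, seeded at OD600 0.02 in galactose medium with compound for 24 hr at 30 deg C. Growth read by BacTiter-Glo luminescence, so rescue of toxicity appears as activation.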
For `COC(=O)c1sc2nc(CN3CCN(c4ccc(OC)cc4)CC3)[nH]c(=O)c2c1C`, the “growth rescue (activation)” value was inactive: 10.8%. For `COc1ccc(CNC(=O)C(C)OC(=O)c2cccs2)cc1` (stereo unspecified), the “growth rescue (activation)” value was inactive: 17.8%. With `CCn1c(NCc2ccc(OC)c(OC)c2)nc2ccccc21` the “growth rescue (activation)” value was inactive: -0.665%. In the case of `COc1ccc(CCNC(=S)NCCc2c[nH]c3ccccc23)cc1`, the “growth rescue (activation)” value is reported as inactive: -12%. For `CN(Cc1ccccc1NCC(=O)Nc1ccccc1C#N)C1CCCCC1`, the “growth rescue (activation)” value was inactive: 12.2%. In the case of `N/C(=N\N=C\c1ccc([N+](=O)[O-])cc1)c1nonc1N`, the “growth rescue (activation)” value is reported as inactive: 10%. With `O=C(C1CCN(S(=O)(=O)N2CCOCC2)CC1)N1CCN(c2ccc(F)cc2)CC1` the “growth rescue (activation)” value was inactive: 2.13%. In the case of `CC1CCCCC12NC(=O)N(CC(=O)NC1CCCc3ccccc31)C2=O` (stereo unspecified), the “growth rescue (activation)” value is reported as inactive: -12.9%. With `COC(=O)C1=C(N)Oc2cc(C)[nH]c(=O)c2C1c1ccccc1OC` (stereo unspecified) the “growth rescue (activation)” value was inactive: -18.4%. With `CCc1cccc(C)c1NC(=O)CN1C(=O)NC(CCc2ccccc2)C1=O` (stereo unspecified) the “growth rescue (activation)” value was inactive: 4.76%. For `N=c1oc2c3c4c(cc2cc1C(=O)Nc1ccccc1)CCCN4CCC3`, the “growth rescue (activation)” value was inactive: 24%. For `Cn1c(N)c(C(=O)COC(=O)Cc2ccccc2F)c(=O)n(C)c1=O`, the “growth rescue (activation)” value was inactive: -1.53%. In the case of `Cc1cc[n+](-c2nc3ccccc3nc2[N-]S(=O)(=O)c2cccs2)cc1C`, the “growth rescue (activation)” value is reported as inactive: 5.07%. For `CCN(CC)S(=O)(=O)c1ccc(N2CCCCC2)c(NC(=O)/C=C/c2cc(OC)c(OC)c(OC)c2)c1`, the “growth rescue (activation)” value was inactive: 13.6%. In the case of `COC(=O)c1ccccc1NC(=S)NC(NC(=O)COc1ccccc1)C(Cl)(Cl)Cl` (stereo unspecified), the “growth rescue (activation)” value is reported as inactive: 10.7%. For `CS(=O)(=O)N1CCCC(C(=O)Nc2cccc(F)c2)C1` (stereo unspecified), the “growth rescue (activation)” value was inactive: -5.14%. With `COc1ccc(C2=NO[C@@H]3[C@@H]4C[C@@H]([C@H]5C(=O)N(c6ccc7c(c6)OCO7)C(=O)[C@@H]45)[C@H]23)cc1OC` the “growth rescue (activation)” value was inactive: 11.9%. In the case of `COc1ccccc1CN(C)C(=O)c1cc(C)nc2ccccc12`, the “growth rescue (activation)” value is reported as inactive: -12.7%. With `COc1ccc(C(=O)N/C(=C\c2ccc3c(c2)OCO3)C(=O)NCCc2nc3ccccc3[nH]2)cc1` the “growth rescue (activation)” value was inactive: 1.95%. For `O=C(O)c1ccccc1C(=O)c1ccc(N2CCOCC2)c([N+](=O)[O-])c1`, the “growth rescue (activation)” value was inactive: -1.14%. With `N#Cc1ccc(-c2cccs2)nc1SCc1cccnc1` the “growth rescue (activation)” value was inactive: 15.9%. For `CC(=O)NCCC1CCCCN1Cc1nc(Cc2cccc(C(F)(F)F)c2)no1` (stereo unspecified), the “growth rescue (activation)” value was inactive: 7.74%. In the case of `NS(=O)(=O)c1ccc(CCNC(=O)C(=O)C2C(=O)Nc3ccccc32)cc1` (stereo unspecified), the “growth rescue (activation)” value is reported as inactive: 16.9%. For `O=C(COC(=O)c1cc(Cl)ccc1Cl)NC1CCCC1`, the “growth rescue (activation)” value was inactive: -9.47%. In the case of `CN1OCC(S(=O)(=O)c2ccccc2)C1c1ccccc1` (stereo unspecified), the “growth rescue (activation)” value is reported as inactive: -10.4%. With `CC(NC(=O)COc1ccc(-c2nnco2)cc1)c1ccc(Cl)cc1Cl` (stereo unspecified) the “growth rescue (activation)” value was inactive: 21.7%. In the case of `COc1ccccc1C(=O)C1CCCN(Cc2cn[nH]c2C2CCCCC2)C1` (stereo unspecified), the “growth rescue (activation)” value is reported as inactive: -4.97%. In the case of `Cn1c(NCc2ccccc2F)nc2cc(-c3ccsc3)sc2c1=O`, the “growth rescue (activation)” value is reported as inactive: 8.05%. In the case of `COC(=O)c1c(C)[nH]c(C(=O)OCC(=O)N2c3ccccc3NC(=O)C2(C)C)c1C`, the “growth rescue (activation)” value is reported as inactive: 15.5%. For `COc1ccc(C2(C(=O)N3CCOCC3)CCCC2)cc1`, the “growth rescue (activation)” value was inactive: 7.93%. With `COc1ccc(NS(=O)(=O)c2csc(C(N)=O)c2)cc1` the “growth rescue (activation)” value was inactive: 11.5%. In the case of `COc1ccc(C(=O)CCC(=O)Nc2cccnc2)c(OC)c1`, the “growth rescue (activation)” value is reported as inactive: -5.25%. With `O=C(NCC1CCCO1)c1ccccn1` (stereo unspecified) the “growth rescue (activation)” value was inactive: -1.53%. With `O=C(COc1ccc(Br)cc1Cl)NCCCN1CCOCC1` the “growth rescue (activation)” value was inactive: 8.06%. With `COc1ccc(CC(=O)NNS(=O)(=O)c2ccccc2[N+](=O)[O-])cc1` the “growth rescue (activation)” value was inactive: -4.07%. With `CSc1cccc(NS(=O)(=O)c2ccc(C(C)=O)cc2)c1` the “growth rescue (activation)” value was inactive: 12.7%. For `O=C(Nc1ccc(C(=O)O)cc1)/C(=C\c1ccco1)NC(=O)c1ccccc1Cl`, the “growth rescue (activation)” value was inactive: -0.212%. For `CC(NC(=O)c1ccccc1F)c1nnc(SCc2nc3ccccc3c(=O)[nH]2)n1C` (stereo unspecified), the “growth rescue (activation)” value was inactive: 7.53%. With `CCN(CCCNC(=O)CSc1cc(=O)n(C)c2cc(Cl)ccc12)Cc1ccccc1` the “growth rescue (activation)” value was inactive: 3.02%. With `COCCNC(=O)C1(C)CCCN(CCS(=O)(=O)c2ccc(C)cc2)C1` (stereo unspecified) the “growth rescue (activation)” value was inactive: 2.73%. For `CCn1cc(C(=O)NCCc2ccccc2)c(=O)c2cc(S(=O)(=O)N(C)C)ccc21`, the “growth rescue (activation)” value was inactive: 8.37%. For `COc1ccc(NC(=O)c2cc(-c3ccccc3)oc2C)cc1`, the “growth rescue (activation)” value was inactive: 11.2%. In the case of `COC(=O)n1c(=O)oc2ccc(S(=O)(=O)N3CCCCC3)cc21`, the “growth rescue (activation)” value is reported as inactive: 7.61%. With `O=C(NCCCN1CCCCC1)c1ccc2c(=O)n(CCc3ccccc3)c(=O)[nH]c2c1` the “growth rescue (activation)” value was inactive: 19.8%. With `CC(=O)N(c1ccc(C)cc1)c1nc(C)cc(C)c1C#N` the “growth rescue (activation)” value was inactive: -11.5%. In the case of `Cc1sc(N)nc1-c1c(C)n(C)c2ccccc12`, the “growth rescue (activation)” value is reported as inactive: 2.09%. With `COc1ccc(C(=O)OCC(=O)N2CCc3ccccc32)cc1S(=O)(=O)N1CCOCC1` the “growth rescue (activation)” value was inactive: 3.64%. In the case of `CCc1nc2ccc(C(=O)NCc3ccc4c(c3)OCO4)cn2c1N(C)Cc1ccc(OC)cc1`, the “growth rescue (activation)” value is reported as inactive: 2.93%. With `Cc1sc(-n2cccc2)c(C(C)NC(=O)Nc2ccccc2Cl)c1C` (stereo unspecified) the “growth rescue (activation)” value was inactive: 20.3%. In the case of `COc1ccc([N+](=O)[O-])cc1NC(=O)COC(=O)c1ccccc1O`, the “growth rescue (activation)” value is reported as inactive: 24.7%. With `O=C(CCCN1C(=O)c2ccccc2C1=O)Nc1nnc(C2CC2)s1` the “growth rescue (activation)” value was inactive: -2.45%. In the case of `COc1ccc(NC(=O)C2CCC(C(C)(C)C)CC2)cc1S(=O)(=O)N1CCCCC1` (stereo unspecified), the “growth rescue (activation)” value is reported as inactive: 13.8%. For `COc1ccncc1-c1csc(C(O)c2ccccc2)n1` (stereo unspecified), the “growth rescue (activation)” value was inactive: -1.15%. With `O=C(O)C(Cc1c[nH]c2ccccc12)NS(=O)(=O)c1cccc2nsnc12` (stereo unspecified) the “growth rescue (activation)” value was inactive: 3.7%. With `CCOC(=O)c1c(NC2=NS(=O)(=O)c3ccccc32)sc2c1CCCCC2` the “growth rescue (activation)” value was inactive: 23%. With `COc1cc(/C=C/C(=O)Nc2cc(S(=O)(=O)N3CCOCC3)ccc2N2CCCC2)cc(OC)c1OC` the “growth rescue (activation)” value was inactive: 1.89%. For `Cc1cccc2sc(NC(=O)CSc3cn[nH]n3)nc12`, the “growth rescue (activation)” value was inactive: 5.27%. In the case of `Cc1cc(C(=O)NC(=S)Nc2ccccc2N2CCOCC2)ccc1[N+](=O)[O-]`, the “growth rescue (activation)” value is reported as inactive: 25.4%. For `OC(c1ccccc1)(C1CCCCC1)C(CN1CCOCC1)c1ccccc1` (stereo unspecified), the “growth rescue (activation)” value was inactive: -31.4%. For `Cc1cc(C)nc(NS(=O)(=O)c2ccc(NC(=O)Nc3ccccc3)cc2)n1`, the “growth rescue (activation)” value was inactive: 10.6%. With `O=C(OC(C(=O)NCc1ccccc1)c1ccccc1)c1ccco1` (stereo unspecified) the “growth rescue (activation)” value was inactive: 7.77%. In the case of `CCC(=O)Nc1ccc2c(c1)C(=O)N(C)C2=O`, the “growth rescue (activation)” value is reported as inactive: -5.04%. In the case of `O=S(=O)(NNc1ncc(C(F)(F)F)cc1Cl)c1ccccc1`, the “growth rescue (activation)” value is reported as inactive: 1.18%. For `CCOC(=O)C1(Cc2ccccc2C(F)(F)F)CCN(CCCn2cccn2)CC1`, the “growth rescue (activation)” value was inactive: 10.7%. With `CCOc1cc(N2CCOCC2)c(OCC)cc1NC(=O)COC(=O)[C@H](Cc1c[nH]c2ccccc12)NC(C)=O` the “growth rescue (activation)” value was inactive: 12.6%. With `S=C(/N=c1/sccn1Cc1ccccc1)NC1CC1` the “growth rescue (activation)” value was inactive: 16.2%.
